Laboratory results reported in US20150038682A1.

Target: death receptor 4 (DR4) on Ramos cells (human) (UniProt O00220)
Experiment: cell-based or functional assay

Binder	viability of Ramos cells at 6.2 ng/ml antibody	EC50 value to induce apoptosis (Ramos cell viability, alamar Blue, overnight)	viability of Ramos cells after overnight incubation with 1,000 ng/ml antibody
HuYON007-THG (antibody) heavy 1: QVTLRESGPALVKPTQTLTLTCTFSGFSLSTSGMGVSWIRQPPGKALEWLAHIYWDDDKRYNPSLKSRLTISKDTSKNQVVLTMTNMDPVDTATYYCTRRGEYGNFDYWGQGTLVTVSSASTKGPSVFPLAPSSKSTSGGTAALGCLVKDYFPEPVTVSWNSGALTSGVHTFPAVLQSSGLYSLSSVVTVPSSSLGTQTYICNVNHKPSNTKVDKKV[left out - human IgG1 Fc with changes] heavy 2: QVTLRESGPALVKPTQTLTLTCTFSGFSLSTSGMGVSWIRQPPGKALEWLAHIYWDDDKRYNPSLKSRLTISKDTSKNQVVLTMTNMDPVDTATYYCTRRGEYGNFDYWGQGTLVTVSS[left out - human IgG1 constant region with changes]SGGGSGGGSHMKQIEDKLEEILSKLYHIENELARIKKLLGERAG light: QTVVTQEPSFSVSPGGTVTLTCRSSSGAVTTSNFANWVQQTPGQAPRGLIGGTNNRAPGVPDRFSGSLLGNKAALTITGAQADDESDYYCALWYSNHWVFGGGTKLTVL	6%		
HuYON007-KH (antibody) heavy 1: QVTLRESGPALVKPTQTLTLTCTFSGFSLSTSGMGVSWIRQPPGKALEWLAHIYWDDDKRYNPSLKSRLTISKDTSKNQVVLTMTNMDPVDTATYYCTRRGEYGNFDYWGQGTLVTVSSASTKGPSVFPLAPSSKSTSGGTAALGCLVKDYFPEPVTVSWNSGALTSGVHTFPAVLQSSGLYSLSSVVTVPSSSLGTQTYICNVNHKPSNTKVDKKV[left out - human IgG1 Fc with changes] heavy 2: QVTLRESGPALVKPTQTLTLTCTFSGFSLSTSGMGVSWIRQPPGKALEWLAHIYWDDDKRYNPSLKSRLTISKDTSKNQVVLTMTNMDPVDTATYYCTRRGEYGNFDYWGQGTLVTVSS[left out - human IgG1 constant region with changes] light: QTVVTQEPSFSVSPGGTVTLTCRSSSGAVTTSNFANWVQQTPGQAPRGLIGGTNNRAPGVPDRFSGSLLGNKAALTITGAQADDESDYYCALWYSNHWVFGGGTKLTVL		> 1 µg/mL	100%
trimeric HuYON007-THA (antibody) heavy 1: QVTLRESGPALVKPTQTLTLTCTFSGFSLSTSGMGVSWIRQPPGKALEWLAHIYWDDDKRYNPSLKSRLTISKDTSKNQVVLTMTNMDPVDTATYYCTRRGEYGNFDYWGQGTLVTVSSASTKGPSVFPLAPSSKSTSGGTAALGCLVKDYFPEPVTVSWNSGALTSGVHTFPAVLQSSGLYSLSSVVTVPSSSLGTQTYICNVNHKPSNTKVDKKV[left out - human IgG1 Fc with changes] heavy 2: QVTLRESGPALVKPTQTLTLTCTFSGFSLSTSGMGVSWIRQPPGKALEWLAHIYWDDDKRYNPSLKSRLTISKDTSKNQVVLTMTNMDPVDTATYYCTRRGEYGNFDYWGQGTLVTVSS[left out - about 500 residues with a human IgG1 Fc] light: QTVVTQEPSFSVSPGGTVTLTCRSSSGAVTTSNFANWVQQTPGQAPRGLIGGTNNRAPGVPDRFSGSLLGNKAALTITGAQADDESDYYCALWYSNHWVFGGGTKLTVL			< 20%
